Experimental findings from the supplement of paper PMC11417369 are described below.

Some of the results follow.

For this assay, the system named is PfHDP1 homeodomain (GST-tagged). The assay is described as follows: gcPBM binding intensity (ln(normalized median fluorescence intensity)); higher = stronger DNA binding. In a few lines: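 Plasmodium falciparum DNA-binding domains carrying a GST tag were expressed in E. coli and applied for 1 h, at about 25 μg on average, to an Agilent 4 × 180k array. The array held primer-extended double-stranded 36-bp intergenic genomic probes together with negative controls, and binding took place in 1× PBS with 1% milk, 0.2 mg/ml BSA, 0.5% salmon testes DNA and 0.03% Triton X-100. An Alexa488 anti-GST antibody detected bound protein, and the array was scanned at 488 nm. Binding intensity is taken as the highest Masliner-normalised natural-log median intensity across replicate spots of either probe orientation.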
Take “ACAAACAAATAAATATGTACGAATAAATAAAATTTT [XGTACX_site4664]”: the “gcPBM binding intensity (ln)” value was found to be 6.32. On to CTTTTAGAATAATCAGTGCAAAAAAAAAAAAAAAAA, for which the “gcPBM binding intensity (ln)” value turned out to be 9.04. Next, “TTTTTTTTCAAAAATACAAAAAAAAAAGAAAAAAAC [CACACA_negctrl_site625]”: 6.2; “GAAATATTACAAAGTACATGCAACGAAAATTTCAGT [TGCATGCA_site608]”: 6.99. In the case of “GATAATACATAAATTTATAAGTGGAAGAATAAATAA [CACACA_negctrl_site698]”, the “gcPBM binding intensity (ln)” value worked out at 6.84. Regarding “TAATTTTTTTAAGAGAGTACATGACTCAACAGTTTA [XGTACX_site3103]”, the “gcPBM binding intensity (ln)” value turned out to be 5.98. The figure for “TTTCATAAATAATAAAATAAAATATGAAGCAAAAGG [CACACA_negctrl_site1767]” is 6.75. Consider “TTATATCCAACTTGAAAAAAGGTATATGTTTATATA [CACACA_negctrl_site1746]”, for which the “gcPBM binding intensity (ln)” value worked out at 6.11. With “TTTTTTTTTTTTTGGAGTACATGTTTATAACATAAT [XGTACX_site1799]”, the “gcPBM binding intensity (ln)” value came out at 6.46. For “TGCTCTAATTTATATACACACAAATATGTACACATA [CACACA_site7845]”, the “gcPBM binding intensity (ln)” value is 7.09. The figure for “TATTTTTGTATATATTTATTCTTATTTTACAGGAAA [TGCATGCA_negctrl_site472]” is 6.22.

For “AACAAAAATAGAAACACACATACATTGGTTTTCTTT [CACACA_site2534]”, the “gcPBM binding intensity (ln)” value came out at 6.13. The figure for “ACATTTAAGTTTAGCTGTACATATTCATCATAATTA [XGTACX_site37]” is 6.49; for “TATTCCTTCTACAATTAAATAATTATAATAAATATA [GTGCAC_negctrl_site26]” it is 6.51; for “GTATCATTAAATTATTGTACATATATATATATATAT [XGTACX_site8809]” it is 9.36. Next, “ATAAATCAAAGGCACACACACAAAAAAAAAAAAAAA [CACACA_site160]”: 6.34; “TGTTTTTTATATTACTGTACATGTTTTGGAATAATA [XGTACX_site4716]”: 6.96. As to “ATATCACATTCCACGGTACACACTAAAAGAAAAATC [CACACA_site3611]”, the “gcPBM binding intensity (ln)” value was found to be 6.75.

As to “GCGGGTTTATCTTTCGCACACCTTACATTTTAGAAT [CACACA_site2015]”, the “gcPBM binding intensity (ln)” value worked out at 6.92. The figure for “AGTTTTATGTAGTGTTGTACTTTATACAAATATATT [XGTACX_site614]” is 7.25; for “TATTGTTTTGATTGATGTACATGTTTAAAATATATA [XGTACX_site8430]” it is 6.65. The figure for “TAATCTATTTATATGTGTACCTATTTAGAAATGACA [XGTACX_site5709]” is 6.3; for “AAAGTAAATTTAAGCACACACAACGAACTTTTATAC [CACACA_site7008]” it is 6.82.

For “AAGAAAAAATATAATAATAATAAAATATATATAATA [TGCATGCA_negctrl_site475]”, the “gcPBM binding intensity (ln)” value amounted to 6.19.

For “TTTGTTTTTCATAGTGCACACATAACCAAAAATAGT [CACACA_site9030]”, the “gcPBM binding intensity (ln)” value amounted to 9.81. Next, “TTAATTAATAGACACACACACATATAAATATAGATT [CACACA_site7143]”: 6.59; “AAAAAAAAATAATATTGTACACACATAAATTCTTTG [XGTACX_site4315]”: 6.09. In the case of “GTTTTATTAAAAATGTGTACTTAATTATGAAAAAAA [XGTACX_site4689]”, the “gcPBM binding intensity (ln)” value was 6.26. The figure for “GTGTATTTTCTGCGCACACACATGCAAAAAGAAATA [CACACA_site1148]” is 8.17.

As to “TGTTGTAAATATGTTTGTACATAAATATATTATTTA [XGTACX_site5442]”, the “gcPBM binding intensity (ln)” value is 6.25. The figure for “TATATTTACATTGTAACACACATGAAATATATATAT [CACACA_site61]” is 7.55; for “TTTTTTATTGTGATACGTATATTATTTTTTGATAAA [CACACA_negctrl_site1]” it is 6.79. With “CATACTGTGATAGCACCACACACGCAAAAGAGGGTA [CACACA_site8285]”, the “gcPBM binding intensity (ln)” value came to 6.72. Next, “TAAGGCCCTTTTCATCGTACAGTAAAATATAAATAA [XGTACX_site1278]”: 6.52; “GAAAATTCTTAAGGCACACACATATATAATATATAC [CACACA_site569]”: 6.66. Next, “AATTTAACCCATTTTATAATTATTACCACTATATAT [TGCATGCA_negctrl_site452]”: 6.82; “CAAATACATGTGTAAAGTACATATTAATAAGTCTTT [XGTACX_site6342]”: 6.43; “AAGAAAAAATAAACATGTACATAAATATATATATAT [XGTACX_site304]”: 9.01.

Turning to “ATTTAATTTATAAAAACACACACAGGTAAAAAGGTG [CACACA_site8306]”, the “gcPBM binding intensity (ln)” value came to 7.32.

In the case of “ATTTTTTTTTTTATGTGTACATATATTTTTTTAATT [XGTACX_site7921]”, the “gcPBM binding intensity (ln)” value amounted to 7.04. For “AATAATAGAAAAAGGTGTACTTATAAACATATACAC [XGTACX_site6921]”, the “gcPBM binding intensity (ln)” value was 6.34. With “ATATATTTTTTTTCTTCACACACATGAATTATATAT [CACACA_site9053]”, the “gcPBM binding intensity (ln)” value was determined as 6.88. As to “ATATATATATATATATGTACATATTATATATGAACG [XGTACX_site1585]”, the “gcPBM binding intensity (ln)” value was 9.29.

As to “GTAATTATTATTAATAGTACACACTATGGCATTTCA [XGTACX_site5192]”, the “gcPBM binding intensity (ln)” value is 6.41.
